In PubChem BioAssay AID504332 (National Center for Advancing Translational Sciences (NCATS), 2011):
Hit rate of the full screen: of about 350,000 compounds, about 31,000 (8.9%) were called active. Inconclusive means that the source gave no clear call. Such entries were picked first, then a sample of the others. Calls come from the whole dose curve; as a rule, active = well fitted inhibition curve with a large enough effect; inconclusive = small, poorly fitted or top-dose-only effect; inactive = no such curve, though single readings can be large or run the other way. Potencies beside an inconclusive call are fits to weak or partial responses and may not hold up.
% is set by controls: 0 for no effect and ±100 for the full control effect; potency is the fitted concentration of half-maximal effect; tags give direction and shape of the fitted curve.
Note: nearly all actives have a fitted effect of over 75% in size.

These compounds were tested against Histone-lysine N-methyltransferase EHMT2 (Homo sapiens) (UniProt Q96KQ7) (assay: qHTS Assay for Inhibitors of Histone Lysine Methyltransferase G9a). Conditions: G9a H3K9 monomethylation, AlphaScreen, 2 h; activity, negative = inhibition: at 59 µM (top of the series) unless noted.
Sequence of UniProt Q96KQ7 (Q96KQ7 whole entry, looked up): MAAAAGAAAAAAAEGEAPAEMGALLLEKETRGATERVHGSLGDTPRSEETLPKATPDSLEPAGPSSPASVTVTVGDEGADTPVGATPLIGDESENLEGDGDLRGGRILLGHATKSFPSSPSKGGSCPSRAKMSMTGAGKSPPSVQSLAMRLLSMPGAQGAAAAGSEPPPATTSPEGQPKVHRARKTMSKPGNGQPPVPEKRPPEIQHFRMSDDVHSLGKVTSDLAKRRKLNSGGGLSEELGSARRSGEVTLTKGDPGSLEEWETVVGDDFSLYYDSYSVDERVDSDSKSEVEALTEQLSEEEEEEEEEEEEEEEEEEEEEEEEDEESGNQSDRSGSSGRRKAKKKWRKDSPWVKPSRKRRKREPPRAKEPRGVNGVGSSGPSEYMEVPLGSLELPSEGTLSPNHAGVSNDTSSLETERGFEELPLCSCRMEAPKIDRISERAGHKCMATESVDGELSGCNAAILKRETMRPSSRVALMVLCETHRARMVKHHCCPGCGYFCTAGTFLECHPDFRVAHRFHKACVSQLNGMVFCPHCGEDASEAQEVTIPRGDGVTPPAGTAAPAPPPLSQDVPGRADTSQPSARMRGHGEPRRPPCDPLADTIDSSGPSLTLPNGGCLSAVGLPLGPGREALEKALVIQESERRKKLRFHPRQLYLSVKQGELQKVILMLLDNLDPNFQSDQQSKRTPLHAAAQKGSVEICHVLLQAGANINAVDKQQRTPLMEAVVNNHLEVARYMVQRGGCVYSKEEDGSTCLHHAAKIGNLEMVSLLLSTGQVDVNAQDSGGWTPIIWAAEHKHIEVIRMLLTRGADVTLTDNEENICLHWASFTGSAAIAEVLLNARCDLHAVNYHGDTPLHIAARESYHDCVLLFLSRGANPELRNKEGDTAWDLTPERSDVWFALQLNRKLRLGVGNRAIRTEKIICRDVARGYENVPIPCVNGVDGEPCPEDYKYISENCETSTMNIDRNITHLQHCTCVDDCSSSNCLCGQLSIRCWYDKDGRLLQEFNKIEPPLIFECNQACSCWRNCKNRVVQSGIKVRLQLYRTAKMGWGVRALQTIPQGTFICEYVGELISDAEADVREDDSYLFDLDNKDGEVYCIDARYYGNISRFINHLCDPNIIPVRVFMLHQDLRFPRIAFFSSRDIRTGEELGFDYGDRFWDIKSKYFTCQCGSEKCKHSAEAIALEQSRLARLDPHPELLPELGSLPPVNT
In short: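 Signal arises when biotinylated H3K9 peptide, once monomethylated, bridges streptavidin donor and antibody-captured acceptor beads. Enzyme at 20 nM was preincubated 15 min with test compounds; peptide 500 nM and SAM 20 uM then reacted for 2 h.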
For `O=[N+]([O-])c1ccc(O)c(/C=N/Nc2ncnc3c2cnn3-c2ccccc2)c1`, the Potency was “inactive”. `CCOC(=O)c1c(NC(=O)CSc2c[nH]c3ccccc23)sc2c1CCCC2` was tested, and the Potency was inconclusive: 89.1 µM [inhibitor, single point]. With `CCOC(=O)C1CCN(C(=O)Cn2nc(CC)n3cccc3c2=O)CC1` the Potency was “inactive”. In the case of `Cc1cccc2cc(CN(Cc3nnnn3Cc3ccco3)C3CCCC3)c3nnnn3c12`, the Potency is reported as inconclusive: 3.55 µM [inhibitor, partial curve]. For `CCN(CC)CCCn1c(=S)[nH]c2ccccc2c1=O`, the Potency was inconclusive: 50.1 µM [inhibitor, partial curve, poor fit]. For `COCCn1c(C)cc(C(=O)CSc2ccc(NC(C)=O)cc2)c1C`, the Potency was “inactive”. For `CCc1ccc2c(c1)c1nnc(NN)nc1n2CC`, the Potency was inconclusive: 39.8 µM [inhibitor, single point]. `COc1ccc(Cl)cc1S(=O)(=O)NCCCn1ccnc1` was tested, and the Potency was “inactive”. `CCc1cccc(CC)c1-n1c(-c2cccnc2)n[nH]c1=S` was tested, and the Potency was inconclusive: 6.31 µM [inhibitor, single point]. In the case of `Cc1cc(C(=O)N/N=C/c2ccc([N+](=O)[O-])s2)c2ccccc2n1`, the Potency is reported as “inactive”. `CCc1ccccc1OCCCCN1CCCC1` was tested, and the Potency was active: 15.8 µM. For `COc1cc(OC)c(NC(c2nnc(-c3ccccc3)o2)c2ccc(F)cc2Cl)cc1Cl` (stereo unspecified), the Potency was active: 11.2 µM. For `CNC(=O)c1c(NC(=O)CCS(=O)(=O)c2ccc(Cl)cc2)sc2c1CCN(C(=O)OC)C2`, the Potency was active: 50.1 µM. For `CC1S/C(=N/N=C/c2cccc([N+](=O)[O-])c2)NC1=O` (stereo unspecified), the Potency was active: 12.6 µM. `Cc1ccc(Nc2c3c(nc4nncn24)CCC3)cc1` was tested, and the Potency was “inactive”. With `O=C(Nc1ccccc1)Nc1ccccc1Br` the Potency was “inactive”. For `COc1cc(CNc2ccc3c(c2)CCC3)cc(OC)c1O`, the Potency was inconclusive: 5.01 µM [inhibitor, full curve, poor fit]. In the case of `COc1cccc(C(=O)NCC(=O)OCC(=O)c2ccccc2)c1`, the Potency is reported as “inactive”. For `CS(=O)(=O)N(CC(=O)NCCSCc1ccco1)c1ccc(Cl)cc1`, the Potency was inconclusive: 7.08 µM [inhibitor, single point]. For `COc1cc2oc(-c3ccc(O)cc3)cc(=O)c2c(OC)c1O`, the Potency was inconclusive: 39.8 µM [inhibitor, single point]. `CCNC(=O)Cn1cc(C#N)c2ccccc21` was tested, and the Potency was inconclusive: 3.55 µM [inhibitor, full curve]. `CS(=O)(=O)NCCNc1ccc(Cl)cc1[N+](=O)[O-]` was tested, and the Potency was inconclusive: 39.8 µM [inhibitor, partial curve, poor fit]. For `COc1ccc(OCC(=O)Nc2nc3c(s2)CCCC3)cc1`, the Potency was active: 50.1 µM. `CCN(C(=O)Cn1c(C(=O)OC)cc2oc3ccccc3c21)c1cccc(C)c1` was tested, and the Potency was inconclusive: 12.6 µM [inhibitor, partial curve, poor fit]. In the case of `Cn1nccc1C(=O)N1CCc2c([nH]c3ccccc23)C1c1ccc(F)cc1` (stereo unspecified), the Potency is reported as inconclusive: 56.2 µM [inhibitor, partial curve]. With `CCN(C(=O)CSc1nnc(-c2ccco2)n1CC)c1c(N)n(Cc2ccccc2)c(=O)[nH]c1=O` the Potency was inconclusive: 11.2 µM [inhibitor, single point]. With `OC1(c2nc3ccccc3[nH]2)CCCCC1` the activity, negative = inhibition was inactive: 3.93% [at 2.33 µM]. With `Cc1cc(C)cc(-n2cnc3cc(C(=O)NCCc4ccccc4)ccc32)c1` the Potency was “inactive”. In the case of `COc1ccc(NC(=O)CSc2nnc(Cc3cccs3)n2C)cc1`, the Potency is reported as inconclusive: 89.1 µM [inhibitor, partial curve, poor fit]. In the case of `CC(=O)Nc1ccc(C(=O)COC(=O)C2CC2C)c(F)c1` (stereo unspecified), the Potency is reported as inconclusive: 89.1 µM [inhibitor, partial curve, poor fit]. `Cc1cccc2cc(CN(Cc3nnnn3Cc3ccccc3)C3CCCC3)c(=O)[nH]c12` was tested, and the Potency was inconclusive: 12.6 µM [inhibitor, partial curve, poor fit]. With `COc1ccc(C2c3ccc4ccccc4c3Oc3ncn(CCCN(C)C)c(=N)c32)cc1` (stereo unspecified) the Potency was inconclusive: 70.8 µM [inhibitor, single point]. `O=C(NCCc1nc2ccccc2[nH]1)c1ccc([N+](=O)[O-])cc1` was tested, and the Potency was “inactive”. With `COC(CNC(=O)c1ccc(Cn2c(=S)[nH]c3cc4c(cc3c2=O)OCO4)cc1)OC` the Potency was inconclusive: 1.58 µM [inhibitor, full curve, poor fit]. In the case of `CCc1cc(C(=O)Cc2nc3ccccc3[nH]2)c(O)cc1O`, the Potency is reported as “inactive”. With `CC(=O)n1cc([C@@H]2C=C(C(=O)N3CCN(Cc4ccccc4)CC3)O[C@H](OCc3ccc(CO)cc3)C2)c2ccccc21` the activity, negative = inhibition was inconclusive: -101% [inhibitor]. For `CC(=O)Nc1ccc(NC(=O)CSC2=NS(=O)(=O)c3cc(Cl)ccc3N2)cc1`, the Potency was active: 10 µM. For `CC(=O)Nc1ccc(Sc2ccccc2C(=O)O)cc1`, the Potency was inconclusive: 50.1 µM [inhibitor, partial curve, poor fit]. `CCOc1ccc(CCNC(=O)COC(=O)c2cccnc2Cl)cc1OCC` was tested, and the Potency was inconclusive: 89.1 µM [inhibitor, single point]. In the case of `COc1cccc(CNC(=O)CCCCCNC(=O)N2CCn3c2nc2ccccc23)c1`, the Potency is reported as “inactive”. With `Cc1cccc(NC(=O)CSc2ccc(-c3cccs3)nn2)c1C` the Potency was inconclusive: 70.8 µM [inhibitor, single point]. With `CCOc1ccc(/C=C/C(=O)Nc2ccc3[nH]c(=O)[nH]c3c2)cc1` the Potency was inconclusive: 89.1 µM [inhibitor, single point]. In the case of `Cc1[nH]c(=S)c(C#N)c(-c2ccccc2)c1C(=O)Nc1ccccc1`, the activity, negative = inhibition is reported as inconclusive: -84.4% [inhibitor] [at 12.7 µM]. With `COc1ccc(NC(=O)Cc2c(C(=O)O)n(C)c3ccccc23)cc1OC` the Potency was inconclusive: 39.8 µM [inhibitor, full curve]. For `Cc1cc(N2CCCC2)c(F)cc1/C=C\[N+](=O)[O-]`, the Potency was inconclusive: 44.7 µM [inhibitor, partial curve, poor fit]. `CCOCCc1nnc(NC(=O)CCS(=O)(=O)c2ccccc2)s1` was tested, and the Potency was inconclusive: 89.1 µM [inhibitor, single point].
